Among all 110,000 compounds or so, about 230 (0.21%) showed an effect of 50% or more. The list shows a part of the results.
target: DPAP1 (Plasmodium falciparum, UniProt Q8IIJ9); experiment: primary screen, percent inhibition; read by cleavage of a fluorogenic dipeptide substrate; higher = more effect of the substance; parameters: species or system P. falciparum D10 trophozoite lysates; single well
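Also: 30 min substrate incubation versus DMSO and 10 µM JCP410 controls.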

Sequence of DPAP1 (Q8IIJ9 whole entry, looked up): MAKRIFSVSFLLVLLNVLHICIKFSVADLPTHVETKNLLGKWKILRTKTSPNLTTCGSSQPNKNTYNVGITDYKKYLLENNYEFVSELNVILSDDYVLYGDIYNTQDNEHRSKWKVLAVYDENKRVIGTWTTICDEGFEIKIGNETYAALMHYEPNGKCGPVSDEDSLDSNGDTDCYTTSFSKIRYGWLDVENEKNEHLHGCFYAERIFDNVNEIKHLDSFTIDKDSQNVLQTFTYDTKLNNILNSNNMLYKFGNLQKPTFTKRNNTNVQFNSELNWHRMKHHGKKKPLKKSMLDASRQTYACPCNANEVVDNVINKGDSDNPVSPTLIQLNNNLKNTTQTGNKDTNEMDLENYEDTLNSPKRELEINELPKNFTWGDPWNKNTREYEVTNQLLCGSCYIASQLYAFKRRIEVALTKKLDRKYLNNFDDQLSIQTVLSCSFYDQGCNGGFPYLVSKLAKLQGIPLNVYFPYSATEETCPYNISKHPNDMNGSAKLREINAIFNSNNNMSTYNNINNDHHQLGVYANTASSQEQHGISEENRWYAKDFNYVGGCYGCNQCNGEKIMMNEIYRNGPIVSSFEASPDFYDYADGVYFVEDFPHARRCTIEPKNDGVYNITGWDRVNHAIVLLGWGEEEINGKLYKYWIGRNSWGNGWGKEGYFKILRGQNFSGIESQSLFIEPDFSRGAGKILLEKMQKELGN

First: Cc1cccc(C)c1NC(=O)c1cccs1
Second: O=C(/C=C/c1ccco1)c1cccs1
The “% Inhibition @ 10 uM” value of the first is lower: 1.96% for the first, 3.85% for the second.

Going from `COCCN(CC(O)Cn1c2ccccc2c2ccccc21)C(=O)c1ccccc1` (stereo not drawn) to `NCCc1c(-c2ccccc2)n(-c2ccccc2)c2ccccc12`, the “% Inhibition @ 10 uM” value rises from -1.33% to -0.128%.

Compared with `Cn1c(=O)c2c(nc(CN3CCCCC3)n2CC(=O)c2ccccc2)n(C)c1=O`, `CN(CCO)c1nc2c(c(=O)n(Cc3ccc(Cl)cc3)c(=O)n2C)n1C` is higher in “% Inhibition @ 10 uM” value: -6.31% for the first, 3.69% for the second.

Compared with `CC1CCCCC1NC(=O)/C=C/C(=O)O` (stereo not drawn), `COc1ccc(N(CC(=O)NC2CCCC2)S(=O)(=O)c2ccccc2)cc1` is lower in “% Inhibition @ 10 uM” value: -1.99% for the first, -6.14% for the second.

Going from `CCCCC(NC(=O)OCc1ccccc1)C(=O)NC(Cc1ccc(OC)cc1)C(=O)CO` (stereo not drawn) to `COc1ccc(CCNC(=O)[C@H](Cc2ccccc2)N2Cc3ccccc3C2=O)cc1OC`, the “% Inhibition @ 10 uM” value rises from -2.35% to 2.93%.

Going from `CCOC(=O)c1cnc(N2CCCCC2)nc1C` to `CC(C)Cn1c(CCNC(=O)C2CCCCC2)nc2ccccc21`, the “% Inhibition @ 10 uM” value rises from -4.69% to -3.52%.

Compared with `COc1ccc(NC(=O)COc2ccc(Cl)cc2Cl)c(OC)c1`, `COc1ccc2nc(-c3ccccc3)cc(OC)c2c1` is higher in “% Inhibition @ 10 uM” value: -4.82% for the first, 5.42% for the second.

First: COc1ccc(C2C=C(c3ccc(C)cc3)Nc3nc4ccccc4n32)cc1OC (stereo not drawn)
Second: COc1ccc(C2C(C#N)=C(N)N(c3cccc(C)c3)C3=C2C(=O)CCC3)cc1OC (stereo not drawn)
The “% Inhibition @ 10 uM” value of the first is higher: 1.73% for the first, -3.26% for the second.

Going from `CCOC(=O)C1=C(C)N=c2s/c(=C\c3cccs3)c(=O)n2C1c1ccc(Cl)cc1` (stereo not drawn) to `CCOC(=O)C1=C(C)N(c2ccccc2)C(=O)/C1=C\c1ccc(Cl)c(Cl)c1`, the “% Inhibition @ 10 uM” value falls from 3.61% to -3.77%.

First: c1ccc(-c2cn3ncsc3n2)cc1
Second: CC(=O)Nc1ccc(-c2cn3ccccc3n2)cc1
The “% Inhibition @ 10 uM” value of the first is lower: -2.71% for the first, -0.833% for the second.

Going from `COc1ccccc1/C=C1\C(=O)NC(=O)N(c2c(C)cc(C)cc2C)C1=O` to `CCOc1ccccc1-c1nn2c(-c3ccc(C)cc3)nnc2s1`, the “% Inhibition @ 10 uM” value rises from -6.18% to 6.01%.

Compared with `CC(=O)N[C@H]1[C@H](Oc2cc(C)ccc2C(C)C)O[C@H](CO)[C@@H](O)[C@@H]1O`, `COc1ccc(-c2nc(CS(=O)CC(=O)NC3CCC(C)CC3)c(C)o2)cc1OC` (stereo not drawn) is lower in “% Inhibition @ 10 uM” value: -0.0235% for the first, -8.65% for the second.

First: COC(=O)C1=CN(C)C=C(C(=O)OC)C1c1cc(Br)ccc1OC
Second: COc1ccc(OC)c2c1ncn2C
The “% Inhibition @ 10 uM” value of the first is higher: -1.46% for the first, -4.15% for the second.

Going from `NC(=O)COc1ccc(C23CC4CC(CC(C4)C2)C3)cc1` to `N=C(Cc1cccs1)NOC(=O)COc1ccc(Br)cc1`, the “% Inhibition @ 10 uM” value falls from 0.962% to 0.343%.

Compared with `COc1ccc(/N=c2\oc(C)cc(O)c2C(C)=O)cc1`, `COc1cccc2sc(N(CCCN(C)C)C(=O)c3ccco3)nc12` is higher in “% Inhibition @ 10 uM” value: -3.46% for the first, 1.76% for the second.

Compared with `Cc1cc(NC(=O)COCc2cc(-c3ccc4c(c3)OCO4)on2)no1`, `Cc1ccc(C2=NS(=O)(=O)N(C)C(C(=O)Nc3cc(C)n(CC(=O)N4CCOCC4)n3)=C2)cc1` is lower in “% Inhibition @ 10 uM” value: 9.46% for the first, 2.32% for the second.

First: CCN(CC)CCN(CC)Cc1cccc(Cl)c1
Second: Cc1cc(OCC(=O)N(Cc2cccc(F)c2)Cc2ccco2)ccc1Cl
The “% Inhibition @ 10 uM” value of the first is lower: -1.41% for the first, 2.29% for the second.

First: CC(CCN1CCC(O)(c2ccc(Br)cc2)CC1)c1ccccc1 (stereo not drawn)
Second: O=C1CC(C(=O)Nc2cccc3ccccc23)C(c2ccccc2)O1 (stereo not drawn)
The “% Inhibition @ 10 uM” value of the first is lower: -1.21% for the first, 5.53% for the second.

Going from `CCOC(=O)C1CCCN(Cc2cccc(C(F)(F)F)c2)C1` (stereo not drawn) to `O=S(=O)(c1ccccc1)N1N=C2CCCCC2C1(O)C(F)(F)F` (stereo not drawn), the “% Inhibition @ 10 uM” value falls from 3.05% to 0.722%.

First: Cc1nn(CCCC(=O)N2CCc3ccccc3C2)c(=O)c2cc3sccc3n12
Second: O=C(c1ccccc1Br)N1C(=O)c2ccccc2S1(=O)=O
The “% Inhibition @ 10 uM” value of the first is higher: 4.95% for the first, 4.06% for the second.

Compared with `CN(C)c1ccc(C2OC(COc3ccccc3)CN(C(=O)c3ccccc3)O2)cc1` (stereo not drawn), `CCOc1ccc(CC/N=C2\CC(c3ccccc3)CC(O)=C2C(C)=O)cc1OCC` (stereo not drawn) is higher in “% Inhibition @ 10 uM” value: -6.7% for the first, 4.19% for the second.

Compared with `Cc1ccc(CSc2nc3nccnc3c(=O)n2CCC(C)C)cc1`, `Cc1ccc(-c2cc(N)n3nc(-c4ccc(C)cc4)cc3n2)cc1` is higher in “% Inhibition @ 10 uM” value: -3.73% for the first, -2.14% for the second.

Compared with `Nc1ccc2c(Cl)nn(-c3ncc(C(F)(F)F)cc3Cl)c2c1`, `Cc1ccc(Cl)cc1-n1ncc2c(NCCOCCO)ncnc21` is higher in “% Inhibition @ 10 uM” value: 1.64% for the first, 1.91% for the second.

Going from `c1ccc2c(c1)nc(NC1CCCCC1)c1ccccc12` to `O=C(Nc1n[nH]c(-c2ccncc2)n1)c1ccccc1`, the “% Inhibition @ 10 uM” value falls from 5.73% to -5.53%.

Compared with `O=C(/C=C/c1ccccc1)Nc1ccc(F)cc1F`, `COc1cc(S(=O)(=O)N2CCN(c3cccc(Cl)c3)CC2)ccc1Cl` is lower in “% Inhibition @ 10 uM” value: 5.03% for the first, -2.66% for the second.

With `COc1cccc(C2C3=C(O)CCCC3=NC3=C2C(=O)CCC3)c1` (stereo not drawn) the “% Inhibition @ 10 uM” value was -1.6%.
